The structures appear in SMILES notation. ± gives the uncertainty stated by the source. Over roughly 9,900 compounds, “viability index relative to DMSO control” has its median near 1; the lowest 2% begin near 0.85. This is one part of the list.

Consider 70 compounds from the supplement of paper PMC4723716.

The test system of the assay is Plasmodium falciparum NF54 stage V gametocytes. Kind of assay: viability index relative to DMSO control (fraction); higher = less gametocyte killing. The settings on record: 2.5 µM, library set: Broad Institute DOS, incubation time: 72 h. An outline of the steps:
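P. falciparum NF54 stage V gametocytes in serum-free screening medium (0.75% gametocytemia, 1.25% hematocrit, 10 µl) were incubated with compound at 2.5 µM in 1,536-well plates for 72 hr at 37°C under low oxygen. Then 3 µl of 2.5 µM MitoTracker Red CMXRos plus 0.13% saponin was added for one to two hours. One field per well was imaged, 20–70 µm2 red particles were counted, and the viability index was the count divided by the plate mean of DMSO wells.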
Regarding `CNC(=O)C[C@H]1CC[C@H]2[C@H](COc3ccc(NS(=O)(=O)c4ccc(F)cc4)cc3C(=O)N2C)O1`, the viability index was found to be 1.05 ± 0.054.

In turn, `Cc1noc(C)c1S(=O)(=O)Nc1ccc2c(c1)C(=O)N([C@H](C)CO)C[C@H](C)[C@H](CN(C)C(=O)Nc1cccc3ccccc13)OCCCC[C@H](C)O2` returned a viability index of 0.983 ± 0.0032. As for `C[C@H](CO)N1C[C@H](C)[C@H](CN(C)C(=O)[C@H]2CCCN2C)OCc2ccccc2-c2ccccc2C1=O`, the figure is 1.02 ± 0.019; as for `COc1ccc(C[C@@H]2CCn3cc(nn3)COC[C@@H](C)NC2=O)cc1`, 1.03 ± 0.042; as for `N#C[C@@H]1[C@@H](c2ccccc2-c2ccc(F)cc2)[C@H](CO)N1C(=O)Cc1cccnc1`, 1.15 ± 0.1.

Take `C[C@@H]1CN([C@@H](C)CO)C(=O)c2c(c3ccccc3n2C)-c2ccccc2CO[C@H]1CN(C)C(=O)Nc1ccccc1C(F)(F)F`: the viability index was determined as 0.805 ± 0.084. For `COc1cccc(-c2ccc([C@H]3[C@@H](CO)N4C(=O)CN(C(=O)c5cccnc5)C[C@@H]34)cc2)c1` the value was 1.04 ± 0.017.

With `Cc1ccccc1-c1cnc2c(c1)C(=O)N([C@H](C)CO)C[C@H](C)[C@@H](CN(C)Cc1ccccc1F)O2`, the viability index came to 1.06 ± 0.015. The compound `N#C[C@@H]1[C@H](c2ccccc2C2=CCCCC2)[C@@H](CO)N1C(=O)CN1CCOCC1` returned a viability index of 1.13 ± 0.075. `CN1C(=O)c2cc(NC(=O)C3CCOCC3)ccc2OC[C@@H]2O[C@H](CC(=O)NCc3ccccc3F)CC[C@@H]21` yielded a viability index of 1.01 ± 0.032. Turning to `C/C=C/c1ccccc1[C@@H]1[C@@H](C#N)N(C(=O)CN2CCOCC2)[C@@H]1CO`, the viability index came out at 1.16 ± 0.14. For `COc1ccccc1S(=O)(=O)N(C)C[C@H]1OCc2cn(nn2)CCCC(=O)N([C@@H](C)CO)C[C@@H]1C` the value was 1.06 ± 0.053; for `O=C(O)C[C@H]1C[C@H]2c3cc(NC(=O)Cc4ccncc4)ccc3O[C@H]2[C@@H](CO)O1`, 1.028 ± 0.01; for `O=C(C[C@@H]1CC[C@H](NC(=O)CN2CCOCC2)[C@H](CO)O1)NC1CCC1`, 1.17 ± 0.053. For `O=C(C[C@@H]1CC[C@H](NC(=O)C2CCOCC2)[C@@H](CO)O1)NCC1CCCCC1` the value was 1.1 ± 0.079. For the compound `CCC(=O)N1[C@@H](CO)[C@H](c2ccccc2)[C@@H]1CN(C)C(=O)CN1CCOCC1`, the viability index was 0.951 ± 0.014.

As to `CO[C@H]1CN(C)C(=O)c2cc(NC(=O)Nc3cccc(Cl)c3)ccc2OC[C@H](C)N(C(=O)Nc2c(C)noc2C)C[C@@H]1C`, the viability index was 1.08 ± 0.027. For `O=C(C1CCOCC1)N1CC2(C1)[C@H](c1ccccc1)[C@H](CO)N2C(=O)CC1CC1` the value was 1.1 ± 0.067; for `CCC(=O)NC[C@@H]1[C@@H](c2ccc(-c3cccc(F)c3)cc2)[C@@H](CO)N1CC1CC1`, 1.067 ± 0.01; for `COc1ccc2c3c([C@@H](CO)N(C)C[C@]33CN(C3)S(=O)(=O)c3cccc(C)c3)n(C)c2c1`, 0.94 ± 0.11.

In turn, `CN1C(=O)c2cc(NS(=O)(=O)c3ccccc3F)ccc2OC[C@H]2O[C@H](CC(=O)NC3Cc4ccccc4C3)CC[C@H]21` gave a viability index of 0.872 ± 0.018. On to `C[C@H]1CN([C@@H](C)CO)C(=O)CCCn2nncc2CO[C@H]1CN(C)C(=O)Nc1ccc2c(c1)OCCO2`, for which the viability index is 1.028 ± 0.01. As for `Cc1noc(C)c1NC(=O)N[C@@H]1C=C[C@H](CC(=O)Nc2ccc(-c3ccccc3)cc2)O[C@H]1CO`, the figure is 0.9758 ± 0.0078; as for `COc1ccccc1C#Cc1ccc([C@@H]2[C@H]3CN(C(=O)C4CCC4)CCCCN3[C@H]2CO)cc1`, 1 ± 0.035; as for `O=C(NCC[C@@H]1CC[C@H](NC(=O)c2ccncc2)[C@H](CO)O1)Nc1ccc(Cl)cc1`, 1.16 ± 0.034. For `C[C@H]1CC(=O)N[C@H](c2ccccc2)C/C=C\C[C@@H](c2ccccc2)NC1=O` the value was 1.049 ± 0.0043; for `COc1ccc(C#Cc2ccc([C@@H]3[C@H]4CN(C(=O)NC(C)C)CC(=O)N4[C@H]3CO)cc2)cc1`, 1.11 ± 0.053.

Compound `CN(C)C(=O)C[C@H]1CC[C@@H]2[C@H](COC[C@H](O)CN2S(=O)(=O)c2ccccc2Cl)O1` yielded a viability index of 1.09 ± 0.032. Consider `COc1ccc2c3c([C@@H](CO)N(CC4CC4)C[C@]33CN(C3)C(=O)CC3CC3)n(C)c2c1`, for which the viability index is 0.957 ± 0.11. Regarding `CCCNC(=O)N1CC2(C1)[C@@H](c1ccccc1)[C@H](CO)N2C(=O)CC1CC1`, the viability index came out at 1.16 ± 0.018. Turning to `N#Cc1cccc(-c2ccc([C@@H]3[C@@H]4CN(C(=O)c5ccc6c(c5)OCO6)C[C@H]3N4)cc2)c1`, the viability index turned out to be 0.896 ± 0.077. In turn, `COc1ccc(S(=O)(=O)N(C)C[C@@H]2Oc3ccc(N(C)C)cc3CC(=O)N([C@H](C)CO)C[C@@H]2C)cc1` yielded a viability index of 1.03 ± 0.033. For `CO[C@H](CN(C)Cc1cc(F)ccc1F)[C@@H](C)CN([C@H](C)CO)S(=O)(=O)c1ccc(C)cc1` the value was 1.11 ± 0.028.

For `CNC(=O)C[C@H]1CC[C@H]2[C@H](COc3ccc(NC(=O)c4ccccc4F)cc3C(=O)N2C)O1`, the viability index turned out to be 1.11 ± 0.07.

On to `N#C[C@H]1[C@@H](c2ccccc2-c2cccc(F)c2)[C@H](CO)N1C(=O)C1CC1`, for which the viability index came out at 1.18 ± 0.045. `O=C(C[C@H]1CC[C@@H]2[C@H](COC[C@@H](O)CN2C(=O)Nc2cccc(F)c2)O1)NCCCN1CCOCC1` came in with a viability index of 1 ± 0.053.

Turning to `COc1ccc2c3c([C@@H](CO)N(C[C@]33CN(C3)C(=O)c3ccccn3)S(=O)(=O)c3ccc(C)cc3)n(C)c2c1`, the viability index came to 0.97 ± 0.014. `O=C(C1CCCCC1)N1CC(=O)N2[C@H](CO)[C@H](c3ccc(-c4ccccc4F)cc3)[C@H]2C1` returned a viability index of 0.994 ± 0.028. Compound `COc1ccc(-c2ccc([C@@H]3[C@@H]4CN(S(=O)(=O)c5ccccc5C)C[C@H]3N4)cc2)cc1` registered a viability index of 0.713 ± 0.11. Take `C[C@H](CO)N1C[C@H](C)[C@H](CN(C)Cc2ccccc2C(=O)O)OCc2cnnn2CCCC1=O`: the viability index came to 1.04 ± 0.051. For `C[C@H](CO)N1C[C@H](C)[C@@H](CN(C)S(=O)(=O)c2cn(C)cn2)Oc2c(NC(=O)Nc3ccc(C(F)(F)F)cc3)cccc2C1=O` the value was 1.03 ± 0.13; for `Cc1ccccc1-c1ccc([C@H]2[C@@H]3CN(Cc4ccc5c(c4)OCO5)C[C@H]2N3)cc1`, 1.06 ± 0.057; for `C[C@H]1CN([C@@H](C)CO)C(=O)c2cccc(NC(=O)c3ccc(-c4nccs4)cc3)c2O[C@@H]1CN(C)C(=O)Nc1ccc(C(F)(F)F)cc1`, 1.03 ± 0.067. Compound `CN(C)CC(=O)Nc1ccc2c(c1)C(=O)N(C)[C@H]1CC[C@H](CC(=O)Nc3cccc(Cl)c3)O[C@@H]1CO2` returned a viability index of 1.01 ± 0.083. For `COc1ccc(-c2ccccc2[C@H]2[C@@H](C#N)N(C(=O)NC3CCCCC3)[C@H]2CO)cc1` the value was 1.09 ± 0.012; for `O=C(CC1CC1)N1CC(=O)N2[C@H](CO)[C@@H](c3ccc(/C=C/c4ccccc4)cc3)[C@H]2C1`, 1.1 ± 0.031.

Regarding `O=S(=O)(c1cccs1)N1CCCCN2[C@H](CO)[C@H](c3ccc(/C=C/c4ccccc4)cc3)[C@@H]2C1`, the viability index stood at 0.993 ± 0.045. For `CN(C)C(=O)C[C@H]1C[C@@H]2c3cc(NC(=O)Nc4ccc(F)cc4)ccc3O[C@@H]2[C@H](CO)O1` the value was 1.1 ± 0.049; for `CC(=O)N1[C@H](CO)[C@H](c2ccccc2)[C@H]1CN(C)S(=O)(=O)c1ccccc1`, 1.0021 ± 0.00068; for `COc1ccc(S(=O)(=O)N(C)C[C@H]2Oc3ccc(NC(=O)Nc4ccc(C(F)(F)F)cc4)cc3C(=O)N([C@@H](C)CO)C[C@@H]2C)cc1`, 1.02 ± 0.065. For `CNC[C@@H]1Oc2c(N)cccc2C(=O)N([C@H](C)CO)C[C@H]1C` the value was 0.995 ± 0.088; for `COc1ccc(C#Cc2cccc(-c3nc(C(=O)NCCCN4CCOCC4)cc4c3[C@@H](CCO)N(S(=O)C(C)(C)C)C4)c2)cc1OC` (stereo not given in full), 1.08 ± 0.014; for `C[C@@H]1CCCCO[C@H](CN(C)C(=O)CCC(F)(F)F)[C@H](C)CN([C@H](C)CO)C(=O)c2cc(NC(=O)C3CCCCC3)ccc2O1`, 1.05 ± 0.034.

`Cc1cccc(-c2ccc([C@@H]3[C@@H](CO)N4CCCCN(S(=O)(=O)c5ccccc5F)C[C@@H]34)cc2)c1` yielded a viability index of 1.1 ± 0.096. For `CCC(=O)N1C[C@H]2[C@@H](c3ccccc31)[C@H](CO)N2C(=O)CC1CC1` the value was 0.955 ± 0.082; for `COc1ccc(C(=O)N2C[C@@H]3[C@H](c4ccccc42)[C@@H](CO)N3C(=O)Cc2ccccn2)cc1`, 0.977 ± 0.048; for `C[C@@H]1CN([C@@H](C)CO)C(=O)c2cc(NS(=O)(=O)c3cccs3)ccc2O[C@@H](C)CCCCO[C@H]1CN(C)C(=O)c1ccncc1`, 1.07 ± 0.045. As for `CN1C(=O)c2cc(NC(=O)Nc3ccccc3F)ccc2OC[C@H]2O[C@@H](CC(=O)NCCc3ccncc3)CC[C@H]21`, the figure is 1.07 ± 0.087. As for `COc1ccccc1-c1cccc(-c2nc(C(=O)NCc3ccncc3)cc3c2[C@@H](CCO)N([S@](=O)C(C)(C)C)C3)c1`, the figure is 1.01 ± 0.04; as for `O=C(CCN1CCCCC1)N[C@@H]1CC[C@H](CCn2cc(-c3cccc(F)c3)nn2)O[C@H]1CO`, 1.13 ± 0.015.

Take `CN1C(=O)c2cc(NC(=O)Nc3ccccc3F)ccc2OC[C@@H]2O[C@H](CC(=O)NCCc3ccncc3)CC[C@@H]21`: the viability index is 0.937 ± 0.08.

The compound `C/C=C/c1ccc([C@@H]2[C@H](CO)N(CCC(F)(F)F)C23CN(C(=O)CC2CC2)C3)cc1` registered a viability index of 1.106 ± 0.0046. As for `C[C@@H]1CCCCO[C@H](CN(C)C(=O)Nc2ccc3c(c2)OCO3)[C@H](C)CN([C@H](C)CO)C(=O)c2cc(NS(=O)(=O)c3ccc(F)cc3)ccc2O1`, the figure is 1.05 ± 0.035; as for `Cc1noc(C)c1S(=O)(=O)N(C)C[C@H]1OCCCC[C@@H](C)Oc2ccc(NS(=O)(=O)c3cn(C)cn3)cc2C(=O)N([C@H](C)CO)C[C@@H]1C`, 1.11 ± 0.1; as for `NCC[C@H]1CC[C@H](NC(=O)NC2CCCCC2)[C@@H](CO)O1`, 0.995 ± 0.088.

In turn, `CCS(=O)(=O)N1C[C@@]2(C1)CN([C@@H](CO)c1[nH]c3cc(OC)ccc3c21)C(=O)Nc1c(C)noc1C` registered a viability index of 0.951 ± 0.047. Compound `CN(C)C(=O)c1cccc(-c2ccc3c(c2)[C@H]2[C@H](CCN2C(=O)c2cnccn2)[C@@H](CO)N3)c1` displayed a viability index of 1.16 ± 0.02. On to `O=C(C[C@@H]1CC[C@@H]2[C@H](COC[C@@H](O)CN2C(=O)c2ccc3c(c2)OCO3)O1)NC1CCC1`, for which the viability index amounted to 1.07 ± 0.062.

`CC(C)NC(=O)Nc1ccc2c(c1)C(=O)N(C)[C@H]1CC[C@@H](CC(=O)NCc3ccc(F)cc3)O[C@@H]1CO2` came in with a viability index of 1.09 ± 0.037. For `CC(C)CC#Cc1ccc([C@@H]2[C@H]3CN(S(=O)(=O)c4cccc(F)c4)CC(=O)N3[C@H]2CO)cc1` the value was 0.896 ± 0.13.
